# Single values of this set are uncertain.
# Test: amyloid nucleation score relative to library mode (yeast Sup35 reporter selection) (log enrichment difference); higher = more amyloid nucleation; sequences are the first 22 residues of the Bri2 peptide extended by up to 12 random residues
# Conditions: random library (experiment): 1;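 active = nucleation score significantly above 0 at FDR 0.05; inactive = not significantly above 0 or absent from output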
# 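Further: [psi-pin-] Saccharomyces cerevisiae expressing SupN fusions, induced by 100 µM Cu2SO4, selected 7 d at 30 °C without adenine and uracil, scored by deep sequencing of output versus input.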
row,Sequence,amyloid nucleation score
1,EASNCFAIRHFENKFAVETLICEVVGYNCVDLGR,inactive
2,EASNCFAIRHFENKFAVETLICVFCLNSLYMFRI,inactive
3,EASNCFAIRHFENKFAVETLICLTQIMVRLVCAE,inactive
4,EASNCFAIRHFENKFAVETLICDQYRSLRARRVG,inactive
5,EASNCFAIRHFENKFAVETLICFCH,2.19
6,EASNCFAIRHFENKFAVETLICISVAATWFWL,4.95
7,EASNCFAIRHFENKFAVETLICCFERLGSIERGW,2.98
8,EASNCFAIRHFENKFAVETLICLDRA,inactive
9,EASNCFAIRHFENKFAVETLICVNCLDHDSFAFA,5.42
10,EASNCFAIRHFENKFAVETLICCTS,inactive
11,EASNCFAIRHFENKFAVETLICVVIALRWKCSAA,-0.235
12,EASNCFAIRHFENKFAVETLICALVAWRSGDFCM,7.04
13,EASNCFAIRHFENKFAVETLICFSCHWGT,8.78
14,EASNCFAIRHFENKFAVETLICYRTVCAKHRWSG,inactive
15,EASNCFAIRHFENKFAVETLICVMRPKL,inactive
16,EASNCFAIRHFENKFAVETLICRSHGVICLRVDW,inactive
17,EASNCFAIRHFENKFAVETLICWAHAAVVTKLWL,inactive
18,EASNCFAIRHFENKFAVETLICIDPSD,inactive
19,EASNCFAIRHFENKFAVETLICRWVTHQAVLWLH,0.474
20,EASNCFAIRHFENKFAVETLICRYSVDVLGELCC,1.74
21,EASNCFAIRHFENKFAVETLICFCTGEIASRSLR,5.33

# Same assay, conditions: random library (experiment): 2
row,Sequence,amyloid nucleation score
1,EASNCFAIRHFENKFAVETLICIVYYSFSRSMWG,3.06
2,EASNCFAIRHFENKFAVETLICLRQNFVDGIVLD,inactive
3,EASNCFAIRHFENKFAVETLICKSSVAFYNCIRA,inactive
4,EASNCFAIRHFENKFAVETLICYGWVWNRSGIVW,inactive
5,EASNCFAIRHFENKFAVETLICPGDFTTKEVTIE,inactive
6,EASNCFAIRHFENKFAVETLICWYTPQYLWYSVP,inactive
7,EASNCFAIRHFENKFAVETLICFFSLRKRFILTG,inactive
8,EASNCFAIRHFENKFAVETLICLRFMRLKLCDWL,inactive
9,EASNCFAIRHFENKFAVETLICGMLIVSGEQPVW,7.42
10,EASNCFAIRHFENKFAVETLICRQNCILRVMFYC,inactive
11,EASNCFAIRHFENKFAVETLICLLNKRGFLCGYV,inactive
12,EASNCFAIRHFENKFAVETLICPDDVMIFLRYAR,inactive
13,EASNCFAIRHFENKFAVETLICWFGTNFAVFF,5.3
14,EASNCFAIRHFENKFAVETLICRYGPQVFRLLVS,inactive

# Same assay, conditions: random library (experiment): 3
row,Sequence,amyloid nucleation score
1,EASNCFAIRHFENKFAVETLICRLTLSGQRRWSE,3.01
2,EASNCFAIRHFENKFAVETLICALKACDCWLVVA,inactive
3,EASNCFAIRHFENKFAVETLICIDRNTVSKLRV,inactive
4,EASNCFAIRHFENKFAVETLICGEECWLTRRRRV,inactive
5,EASNCFAIRHFENKFAVETLICVLVVNEDKCVKA,7.71
6,EASNCFAIRHFENKFAVETLICMPEGVLPACQCR,inactive
7,EASNCFAIRHFENKFAVETLICVRMAEAGMSGRA,inactive
8,EASNCFAIRHFENKFAVETLICDVADECLGKCRC,inactive
9,EASNCFAIRHFENKFAVETLICVRGPTGWTLTRG,inactive
10,EASNCFAIRHFENKFAVETLICALRSL,inactive
11,EASNCFAIRHFENKFAVETLICELSSARDLLRYM,inactive
12,EASNCFAIRHFENKFAVETLICLGPGVESRGVVA,inactive
